# Test results published in PubChem BioAssay (NCATS).
# Inconclusive results are not listed. Unless noted, calls come from the whole dose curve. More than one record can exist for a structure, and the calls need not agree. The source holds more than one record for some entries. The list is limited to them. There may be further records. Values given together are repeats (runs, samples, wells, individuals or studies). What stands in brackets tells the records apart. Letters count within one entry. Signs of the kind (2×) stand for listed records that agree.
# What was measured:
# [1] = qHTS for Inhibitors of the Functional Ribonucleoprotein Complex (vRNP) of Lymphocytic Choriomeningitis Arenaviruses (LCMV): Viability assay - alamar blue signal for LCMV Primary Screen (AID 1347085; calls by dose curve; tested in HEK293 reporter line; note: nearly all actives have a fitted effect of over 80% in size); settings: alamar blue viability counter-screen, LCMV vRNP screen cells; series mostly up to 57.5 µM
# [2] = qHTS for Inhibitors of the Functional Ribonucleoprotein Complex (vRNP) of Lassa (LASV) Arenavirus: Viability assay - alamar blue signal for LASV Primary Screen (AID 1347083; calls by dose curve; tested in HEK293 reporter line; note: nearly all actives have a fitted effect of over 80% in size); settings: cell viability, alamar blue fluorescence (LASV minigenome counter-screen); series mostly up to 57.5 µM
# [3] = biological target: Nucleoprotein (Lymphocytic choriomeningitis virus (strain Armstrong)) (UniProt P09992); assay: qHTS for Inhibitors of the Functional Ribonucleoprotein Complex (vRNP) of Lymphocytic Choriomeningitis Arenaviruses (LCMV): LCMV Primary Screen - GLuc reporter signal (AID 1347086); settings: LCMV minigenome vRNP cell assay, Gaussia luciferase reporter; series mostly up to 57.5 µM; note: nearly all actives have a fitted effect of over 70% in size
# UniProt P09992, sequence (P09992 whole entry, looked up): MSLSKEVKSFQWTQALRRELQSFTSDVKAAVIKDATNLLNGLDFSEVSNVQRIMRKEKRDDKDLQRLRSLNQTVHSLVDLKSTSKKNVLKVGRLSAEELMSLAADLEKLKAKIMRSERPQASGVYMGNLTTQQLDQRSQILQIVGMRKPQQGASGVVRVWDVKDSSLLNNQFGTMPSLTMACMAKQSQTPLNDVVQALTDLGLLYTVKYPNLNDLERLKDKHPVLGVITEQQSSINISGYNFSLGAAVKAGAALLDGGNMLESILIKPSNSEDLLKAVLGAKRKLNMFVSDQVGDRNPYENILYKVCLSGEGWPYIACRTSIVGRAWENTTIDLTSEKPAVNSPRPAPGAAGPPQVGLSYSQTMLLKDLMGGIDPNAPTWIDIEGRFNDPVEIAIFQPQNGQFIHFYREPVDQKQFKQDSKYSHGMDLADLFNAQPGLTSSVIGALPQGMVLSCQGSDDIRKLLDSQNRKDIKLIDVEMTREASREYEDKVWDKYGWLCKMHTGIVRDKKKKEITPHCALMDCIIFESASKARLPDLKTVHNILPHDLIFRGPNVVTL
# [4] = qHTS of pediatric cancer cell lines to identify multiple opportunities for drug repurposing: Primary screen for Rh18 cells (AID 1347102; active = well fitted curve in the direction sought with a large enough effect; an effect the other way counts as inactive or inconclusive; note: nearly all actives have a fitted effect of over 65% in size); settings: Rh18 rhabdomyosarcoma viability, CellTiter-Glo luminescence, 48 h; series mostly up to 46 µM
# Method in brief: (§1)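 Cells (500-1,000/well) rested 5 h, then received compounds for 48 h; metabolically active cells were measured by CellTiter-Glo luminescence. Final concentrations spanned up to 46 µM (MIPE, 11-point) or 0.59 nM-46 µM (NPC, 8-point) in primary screens, 11-point in follow-ups.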
# [5] = qHTS for Inhibitors of the Functional Ribonucleoprotein Complex (vRNP) of Lassa (LASV) Arenavirus: LASV Primary Screen - GLuc reporter signal (AID 1347082; calls by dose curve; tested in HEK293 reporter line; note: nearly all actives have a fitted effect of over 60% in size); settings: LASV minigenome vRNP, Gaussia luciferase reporter; series mostly up to 57.5 µM
# [6] = qHTS of pediatric cancer cell lines to identify multiple opportunities for drug repurposing: Primary screen for SK-N-MC cells (AID 1347093; active = well fitted curve in the direction sought with a large enough effect; an effect the other way counts as inactive or inconclusive); settings: SK-N-MC viability, CellTiter-Glo luminescence, 48 h; series mostly up to 46 µM
# [7] = biological target: Retinoic acid receptor RXR-alpha (Homo sapiens) (UniProt P19793); assay: qHTS assay for small molecule agonists of retinoid X receptor alpha signaling (AID 588544); settings: HEK293T RXRa-UAS-bla, beta-lactamase reporter, 18 h; series mostly up to 76.7 µM
# UniProt P19793, sequence (P19793 whole entry, looked up): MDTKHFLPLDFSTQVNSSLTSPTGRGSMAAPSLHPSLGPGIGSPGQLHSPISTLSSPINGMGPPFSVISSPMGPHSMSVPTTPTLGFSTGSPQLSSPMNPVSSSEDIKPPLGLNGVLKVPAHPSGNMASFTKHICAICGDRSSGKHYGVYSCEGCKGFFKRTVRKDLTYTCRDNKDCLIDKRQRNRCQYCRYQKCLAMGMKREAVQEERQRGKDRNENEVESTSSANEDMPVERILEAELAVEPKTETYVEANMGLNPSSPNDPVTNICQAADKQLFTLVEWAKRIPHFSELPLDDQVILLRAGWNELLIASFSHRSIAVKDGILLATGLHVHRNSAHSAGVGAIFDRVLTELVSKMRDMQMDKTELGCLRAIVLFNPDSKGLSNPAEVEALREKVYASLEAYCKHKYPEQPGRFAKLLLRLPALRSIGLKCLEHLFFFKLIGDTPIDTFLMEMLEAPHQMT
# [8] = qHTS of pediatric cancer cell lines to identify multiple opportunities for drug repurposing: Primary screen for SK-N-SH cells (AID 1347098; active = well fitted curve in the direction sought with a large enough effect; an effect the other way counts as inactive or inconclusive; note: nearly all actives have a fitted effect of over 65% in size); settings: SK-N-SH viability, CellTiter-Glo luminescence, 48 h; series mostly up to 57 µM
# Method in brief: as §1
# [9] = qHTS of pediatric cancer cell lines to identify multiple opportunities for drug repurposing: Primary screen for RD cells (AID 1347104; active = well fitted curve in the direction sought with a large enough effect; an effect the other way counts as inactive or inconclusive; note: nearly all actives have a fitted effect of over 55% in size); settings: RD rhabdomyosarcoma viability, CellTiter-Glo luminescence, 48 h; series mostly up to 46 µM
# Method in brief: (§2)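 ATP-based luminescence (CellTiter-Glo) quantifies viability after a 48-hour exposure. Compounds are dosed across 8 or 11 final concentrations; DMSO and 2.3 µM bortezomib serve as controls.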
# [10] = qHTS of pediatric cancer cell lines to identify multiple opportunities for drug repurposing: Primary screen for MG 63 (6-TG R) cells (AID 1347105; active = well fitted curve in the direction sought with a large enough effect; an effect the other way counts as inactive or inconclusive; note: nearly all actives have a fitted effect of over 50% in size); settings: MG 63 (6-TG R) viability, CellTiter-Glo, 48 h; series mostly up to 46 µM
# Method in brief: as §2
# Potency is the fitted concentration of half-maximal effect.
structure (smiles),measurement,setting,value
COC[C@H]1OC(=O)c2coc3c2[C@@]1(C)C1=C(C3=O)C2CCC(=O)[C@@]2(C)C[C@H]1OC(C)=O (stereo partly drawn),Potency,[1],inactive [sample A] and inactive [sample B] and active: 38.5 µM [sample C]
CN(C)c1nc(N(C)C)nc(N(C)C)n1,Potency,[2],inactive [sample A] and inactive [sample B] and active: 27.3 µM [sample C]
same,Potency,[1],inactive [sample A] and inactive [sample B] and active: 27.3 µM [sample C]
same,Potency,[3],inactive [sample A] and inactive [sample B] and active: 30.6 µM [sample C]
COc1cc([C@@H]2c3cc4c(cc3[C@H](O)[C@H]3COC(=O)[C@H]23)OCO4)cc(OC)c1OC,Potency,[2],inactive [sample A] and active: 3.1 nM [sample B]
same,Potency,[1],inactive [sample A] and active: 6.9 nM [sample B]
same,Potency,[3],inactive [sample A] and active: 15.3 nM [sample B]
Cc1ccc(-n2nc(C(C)(C)C)cc2NC(=O)Nc2ccc(OCCN3CCOCC3)c3ccccc23)cc1,Potency,[2],active: 4.32 µM [sample A] and inactive [sample B]
same,Potency,[1],active: 17.2 µM [sample A] and inactive [sample B]
Oc1cc(Cl)ccc1Oc1ccc(Cl)cc1Cl,Potency,[4],active: 31.3 µM [sample A] and inactive [sample B]
CCCCc1oc2ccccc2c1C(=O)c1cc(I)c(OCCN(CC)CC)c(I)c1,Potency,[5],inactive [sample A] and active: 7.69 µM [sample B] and inactive [sample C]
same,Potency,[2],inactive [sample A] and active: 19.3 µM [sample B] and inactive [sample C]
same,Potency,[1],inactive [sample A] and active: 3.43 µM [sample B] and inactive [sample C]
same,Potency,[3],inactive [sample A] and active: 1.93 µM [sample B] and inactive [sample C]
CC(S)C(=O)NCC(=O)O (stereo not drawn),Potency,[2],active: 21.7 µM [sample A] and inactive [sample B]
NC(=O)NO,Potency,[5],inactive [sample A] and inactive [sample B] and active: 17.2 µM [sample C]
same,Potency,[2],inactive [sample A] and inactive [sample B] and active: 344 nM [sample C]
same,Potency,[1],inactive [sample A] and inactive [sample B] and active: 968 nM [sample C]
same,Potency,[3],inactive [sample A] and inactive [sample B] and active: 8.63 µM [sample C]
NC12CC3CC(CC(C3)C1)C2,Potency,[2],inactive [sample A] and active: 19.3 µM [sample B] and inactive [sample C]
CCC(C)(C)C(=O)O[C@H]1C[C@@H](C)C=C2C=C[C@H](C)[C@H](CC[C@@H]3C[C@@H](O)CC(=O)O3)[C@H]21,Potency,[2],inactive [sample A] and active: 24.3 µM [sample B]
same,Potency,[1],inactive [sample A] and active: 19.3 µM [sample B]
same,Potency,[3],inactive [sample A] and active: 43.2 µM [sample B]
Cn1ccc2cc3c(cc21)CCN3C(=O)Nc1cccnc1,Potency,[1],inactive [sample A] and active: 15.3 µM [sample B]
COc1cc2c(c(OC)c1OC)-c1ccc(OC)c(=O)cc1[C@@H](NC(C)=O)CC2,Potency,[3],inactive (3×) and active: 0.7 nM [separate samples]
O=C(C1CCCCC1)N1CC(=O)N2CCc3ccccc3C2C1 (stereo not drawn),Potency,[2],inactive [sample A] and inactive [sample B] and active: 12.2 µM [sample C]
COc1ccc(C(CN(C)C)C2(O)CCCCC2)cc1 (stereo not drawn),Potency,[6],inactive [sample A] and active: 33.2 µM [sample B]
CN1C[C@H]2c3ccccc3Oc3ccc(Cl)cc3[C@@H]2C1,Potency,[1],active: 24.3 µM [sample A] and inactive [sample B]
OCCOc1ccccc1,Potency,[7],inactive [sample A] and active: 15.8 µM [sample B] and inactive [sample C]
N[C@@H](Cc1ccc(N(CCCl)CCCl)cc1)C(=O)O,Potency,[8],active: 27.3 µM [sample A] and inactive [sample B]
NC(=O)N/N=C/c1ccc([N+](=O)[O-])o1,Potency,[3],active: 28.2 µM [sample A] and inactive [sample B]
Oc1ccc(Cl)cc1Cc1ccccc1,Potency,[9],active: 61.8 µM [sample A] and inactive [sample B]
same,Potency,[10],active: 24.6 µM [sample A] and inactive [sample B]
